# From the supplement of paper PMC6089552
# Out of some 3,200 compounds screened, about 300 (9.4%) showed activity. The list shows a part of the results, in another mix than the full data.
# Test system: A673/TR/shEF
# Assay: cell viability (LOESS-normalised, relative to median of negative controls) (log2 ratio); higher = more viable cells (less compound effect), active = hit call of the paper (over 3 MAD below the median)
# Details: treatment time: 72 h
# Method in brief: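 For three days, A673/TR/shEF Ewing sarcoma cells in 384-well plates (1,500 per well) were treated with library compounds at two or more concentrations or with DMSO controls, after doxycycline had been added or withheld 24 h beforehand to induce EWS-FLI1 shRNA knockdown. Viability was read by CellTiter-Glo luminescence on an Envision reader. The data were LOESS-corrected per plate, divided by the median of negative controls and log2-transformed.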
# [1] = 0.25 µM, library screen: screen2, EWS-FLI1 expression: high (no doxycycline)
# [2] = 0.25 µM, library screen: screen2, EWS-FLI1 expression: low (doxycycline-induced shRNA knockdown)
# [3] = 2.5 µM, library screen: screen2, EWS-FLI1 expression: high (no doxycycline)
# [4] = 2.5 µM, library screen: screen2, EWS-FLI1 expression: low (doxycycline-induced shRNA knockdown)
# [5] = 0.025 µM, library screen: screen2, EWS-FLI1 expression: high (no doxycycline)
# [6] = 0.025 µM, library screen: screen2, EWS-FLI1 expression: low (doxycycline-induced shRNA knockdown)
# [7] = 0.25 µM, library screen: screen1, EWS-FLI1 expression: high (no doxycycline)
# [8] = 0.25 µM, library screen: screen1, EWS-FLI1 expression: low (doxycycline-induced shRNA knockdown)
# [9] = 2.5 µM, library screen: screen1, EWS-FLI1 expression: high (no doxycycline)
# [10] = 2.5 µM, library screen: screen1, EWS-FLI1 expression: low (doxycycline-induced shRNA knockdown)
# [11] = 25 µM, library screen: screen2, EWS-FLI1 expression: high (no doxycycline)
# [12] = 25 µM, library screen: screen2, EWS-FLI1 expression: low (doxycycline-induced shRNA knockdown)
compound,measurement,setting,value
CCCN1CCC[C@@H]2Cc3nc(N)ncc3C[C@H]21,cell viability (log2),[1],inactive: 0.0767
same,cell viability (log2),[2],inactive: 0.0848
same,cell viability (log2),[3],inactive: 0.147
same,cell viability (log2),[4],inactive: 0.0159
C=C[C@H]1CN2CC[C@H]1C[C@@H]2[C@@H](O)c1ccnc2ccccc12,cell viability (log2),[5],inactive: -0.0178
same,cell viability (log2),[6],inactive: 0.065
same,cell viability (log2),[7],inactive: 0.0563
same,cell viability (log2),[8],inactive: 0.00789
same,cell viability (log2),[1],inactive: 0.0544
same,cell viability (log2),[2],inactive: 0.025
same,cell viability (log2),[9],inactive: 0.109
same,cell viability (log2),[10],inactive: 0.0808
same,cell viability (log2),[3],inactive: 0.0996
same,cell viability (log2),[4],inactive: 0.113
same,cell viability (log2),[11],inactive: 0.109
same,cell viability (log2),[12],inactive: 0.0339
Cn1cnc(CCN)c1,cell viability (log2),[1],inactive: 0.106
same,cell viability (log2),[2],inactive: 0.0803
same,cell viability (log2),[3],inactive: 0.187
same,cell viability (log2),[4],inactive: 0.116
C1CCc2nnnn2CC1,cell viability (log2),[7],inactive: 0.121
same,cell viability (log2),[8],inactive: 0.103
same,cell viability (log2),[1],inactive: 0.186
same,cell viability (log2),[2],inactive: 0.0782
same,cell viability (log2),[9],inactive: 0.152
same,cell viability (log2),[10],inactive: 0.165
same,cell viability (log2),[3],inactive: 0.149
same,cell viability (log2),[4],inactive: 0.0712
OC[C@@H]1CCCN2CCCC[C@H]12,cell viability (log2),[7],inactive: 0.107
same,cell viability (log2),[8],inactive: 0.116
same,cell viability (log2),[9],inactive: 0.168
same,cell viability (log2),[10],inactive: 0.165
O=C1C=CC(=O)c2c(O)cccc21,cell viability (log2),[5],inactive: 0.123
same,cell viability (log2),[6],inactive: 0.0947
same,cell viability (log2),[7],inactive: 0.185
same,cell viability (log2),[8],inactive: 0.0663
same,cell viability (log2),[1],inactive: 0.0843
same,cell viability (log2),[2],inactive: 0.00401
same,cell viability (log2),[9],inactive: 0.153
same,cell viability (log2),[10],inactive: 0.0956
same,cell viability (log2),[3],inactive: 0.273
same,cell viability (log2),[4],inactive: 0.125
same,cell viability (log2),[11],active: -0.0924
same,cell viability (log2),[12],active: -0.0926
COC[C@H]1OC(=O)c2coc3c2[C@@]1(C)C1=C(C3=O)[C@@H]2CCC(=O)[C@@]2(C)C[C@H]1OC(C)=O,cell viability (log2),"0.025 µM, library screen: screen1, EWS-FLI1 expression: high (no doxycycline)",inactive: 0.254
same,cell viability (log2),"0.025 µM, library screen: screen1, EWS-FLI1 expression: low (doxycycline-induced shRNA knockdown)",inactive: 0.0235
same,cell viability (log2),[7],inactive: 0.137
same,cell viability (log2),[8],inactive: -0.0412
same,cell viability (log2),[1],inactive: 0.179
same,cell viability (log2),[2],inactive: 0.0105
same,cell viability (log2),[9],active: -0.356
same,cell viability (log2),[10],inactive: -0.0837
same,cell viability (log2),[3],inactive: -0.0237
same,cell viability (log2),[4],inactive: 0.0148
same,cell viability (log2),"25 µM, library screen: screen1, EWS-FLI1 expression: high (no doxycycline)",active: -0.711
same,cell viability (log2),"25 µM, library screen: screen1, EWS-FLI1 expression: low (doxycycline-induced shRNA knockdown)",active: -0.309
CC(=O)O[C@H]1CC[C@]2(C=O)C3CC[C@]4(C)[C@@H](C5=CC(=O)OC5)CC[C@]4(O)C3CC[C@]2(O)C1 (some centres undefined),cell viability (log2),[7],inactive: 0.0163
same,cell viability (log2),[8],inactive: -0.145
same,cell viability (log2),[9],active: -1.12
same,cell viability (log2),[10],active: -1.15
CNNC,cell viability (log2),[5],inactive: 0.186
same,cell viability (log2),[6],inactive: 0.0401
same,cell viability (log2),[7],inactive: 0.136
same,cell viability (log2),[8],inactive: 0.152
same,cell viability (log2),[1],inactive: 0.206
same,cell viability (log2),[2],inactive: 0.035
same,cell viability (log2),[9],inactive: 0.115
same,cell viability (log2),[10],inactive: 0.131
same,cell viability (log2),[3],inactive: 0.112
same,cell viability (log2),[4],inactive: 0.0817
same,cell viability (log2),[11],inactive: 0.239
same,cell viability (log2),[12],inactive: 0.143
CC[C@@H]1/C=C/C=C/C[C@H](C)[C@@H](O)[C@](C)(O)C(=O)[C@H](C)[C@@H](O)[C@H](C)C(=O)[C@H](C)[C@@H](O)[C@H](C)/C=C/C(=O)O[C@H]2[C@@H](C)[C@@H](CC1)O[C@@]1(CC[C@@H](C)[C@@H](C[C@H](C)O)O1)[C@@H]2C,cell viability (log2),[1],active: -0.731
same,cell viability (log2),[2],active: -0.205
same,cell viability (log2),[3],active: -0.713
same,cell viability (log2),[4],active: -0.154
Oc1cc2c(cc1O)[C@H]1c3ccccc3CN[C@@H]1CC2,cell viability (log2),[1],inactive: 0.0852
same,cell viability (log2),[2],inactive: -0.0099
same,cell viability (log2),[3],inactive: 0.117
same,cell viability (log2),[4],inactive: 0.00998
Clc1cnc(Oc2ccc(Oc3ncc(Cl)cc3Cl)cc2)c(Cl)c1,cell viability (log2),[1],inactive: 0.042
same,cell viability (log2),[2],inactive: 0.0675
same,cell viability (log2),[3],inactive: 0.18
same,cell viability (log2),[4],inactive: 0.102
CNCCc1ccc(O)c(O)c1,cell viability (log2),[1],inactive: 0.188
same,cell viability (log2),[2],inactive: 0.11
same,cell viability (log2),[3],inactive: 0.188
same,cell viability (log2),[4],inactive: 0.0767
CC1=NCCc2c1[nH]c1cc(O)ccc21,cell viability (log2),[7],inactive: 0.0932
same,cell viability (log2),[8],inactive: -0.00297
same,cell viability (log2),[9],inactive: 0.128
same,cell viability (log2),[10],inactive: -0.00118
C=C[C@H]1CN2CC[C@H]1C[C@H]2[C@H](O)c1ccnc2ccccc12,cell viability (log2),[7],inactive: 0.0661
same,cell viability (log2),[8],inactive: 0.0434
same,cell viability (log2),[9],inactive: 0.171
same,cell viability (log2),[10],inactive: 0.109
C[C@H]1O[C@@H](O[C@H]2[C@@H](O)C[C@H](O[C@H]3[C@@H](O)C[C@H](O[C@H]4CC[C@@]5(C)[C@H](CC[C@@H]6[C@@H]5CC[C@]5(C)[C@@H](C7=CC(=O)OC7)[C@@H](O)C[C@]65O)C4)O[C@@H]3C)O[C@@H]2C)C[C@H](O)[C@@H]1O,cell viability (log2),[7],active: -0.13
same,cell viability (log2),[8],active: -0.332
same,cell viability (log2),[9],active: -1.73
same,cell viability (log2),[10],active: -1.76
COc1ccc2c(c1)[C@]13CCCC[C@@H]1[C@H](C2)N(C)CC3,cell viability (log2),[7],inactive: 0.155
same,cell viability (log2),[8],inactive: 0.126
same,cell viability (log2),[1],inactive: 0.0495
same,cell viability (log2),[2],inactive: 0.122
same,cell viability (log2),[9],inactive: 0.201
same,cell viability (log2),[10],inactive: 0.203
same,cell viability (log2),[3],inactive: 0.0672
same,cell viability (log2),[4],inactive: 0.0213
C[N+]1(C)C2CC(OC(=O)C(CO)c3ccccc3)CC1C1OC12 (centres undefined),cell viability (log2),[7],inactive: 0.0929
same,cell viability (log2),[8],inactive: 0.0137
same,cell viability (log2),[9],inactive: 0.182
same,cell viability (log2),[10],inactive: 0.0439
C[C@]12CC[C@H]3[C@@H](CC[C@]4(O)C[C@@H](O)CC[C@]34C=O)[C@@]1(O)CC[C@@H]2C1=CC(=O)OC1,cell viability (log2),[7],inactive: 0.0251
same,cell viability (log2),[8],inactive: -0.17
same,cell viability (log2),[9],active: -1.21
same,cell viability (log2),[10],active: -1.3
CCN(CC)C(=O)N[C@H]1C=C2c3cccc4[nH]cc(c34)C[C@H]2N(C)C1,cell viability (log2),[1],inactive: 0.144
same,cell viability (log2),[2],inactive: 0.146
same,cell viability (log2),[3],inactive: 0.172
same,cell viability (log2),[4],inactive: 0.138
COC(=O)COc1ccc(Cl)cc1Cl,cell viability (log2),[7],inactive: 0.022
same,cell viability (log2),[8],inactive: -0.0423
same,cell viability (log2),[9],inactive: 0.11
same,cell viability (log2),[10],inactive: 0.0409
C#CCN(C)C(C)Cc1ccccc1 (centres undefined),cell viability (log2),[1],inactive: 0.172
same,cell viability (log2),[2],inactive: 0.0896
same,cell viability (log2),[3],inactive: 0.201
same,cell viability (log2),[4],inactive: 0.16
S=C(NC1CCCCC1)N1CCC(c2cnc[nH]2)CC1,cell viability (log2),[1],inactive: 0.127
same,cell viability (log2),[2],inactive: 0.0827
same,cell viability (log2),[3],inactive: 0.121
same,cell viability (log2),[4],inactive: 0.058
NC(N)=NOCC[C@H](N)C(=O)O,cell viability (log2),[7],inactive: 0.0571
same,cell viability (log2),[8],inactive: 0.021
same,cell viability (log2),[1],inactive: 0.136
same,cell viability (log2),[2],inactive: 0.123
same,cell viability (log2),[9],inactive: 0.165
same,cell viability (log2),[10],inactive: 0.0918
same,cell viability (log2),[3],inactive: 0.125
same,cell viability (log2),[4],inactive: 0.0815
N[C@@H](Cn1oc(=O)[nH]c1=O)C(=O)O,cell viability (log2),[1],inactive: 0.128
same,cell viability (log2),[2],inactive: 0.0395
same,cell viability (log2),[3],inactive: 0.233
same,cell viability (log2),[4],inactive: 0.0667
